Reference: the supplement of paper PMC3334620
The full ranking holds about 33,000 sequences; the median of “E-score (-0.5 to 0.5)” is about -0.011, and the highest 2% start at about 0.28. The list shows a part of the results.

Biological target: T1, Gcr1 (UniProt P07261)
T1 sequence: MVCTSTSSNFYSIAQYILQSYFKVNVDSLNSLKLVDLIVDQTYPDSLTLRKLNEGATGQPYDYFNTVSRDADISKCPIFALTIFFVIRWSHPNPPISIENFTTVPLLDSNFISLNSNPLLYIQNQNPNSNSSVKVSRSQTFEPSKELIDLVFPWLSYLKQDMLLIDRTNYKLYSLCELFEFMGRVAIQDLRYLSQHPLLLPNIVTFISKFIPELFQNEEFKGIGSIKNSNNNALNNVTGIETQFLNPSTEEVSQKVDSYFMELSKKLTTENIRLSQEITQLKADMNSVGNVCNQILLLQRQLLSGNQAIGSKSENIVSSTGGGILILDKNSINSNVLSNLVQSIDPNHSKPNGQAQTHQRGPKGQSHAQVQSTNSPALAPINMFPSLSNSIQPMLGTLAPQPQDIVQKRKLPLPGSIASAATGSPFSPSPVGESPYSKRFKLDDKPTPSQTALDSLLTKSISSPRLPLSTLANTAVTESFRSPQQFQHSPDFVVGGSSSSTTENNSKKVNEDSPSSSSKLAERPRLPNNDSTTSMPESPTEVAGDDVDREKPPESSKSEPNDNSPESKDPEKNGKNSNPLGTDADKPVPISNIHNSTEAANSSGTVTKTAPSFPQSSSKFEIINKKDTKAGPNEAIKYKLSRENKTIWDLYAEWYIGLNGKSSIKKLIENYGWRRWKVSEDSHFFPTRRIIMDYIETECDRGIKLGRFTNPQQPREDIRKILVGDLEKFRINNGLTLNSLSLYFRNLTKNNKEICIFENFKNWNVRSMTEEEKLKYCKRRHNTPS
Assay: PBM E-score (8-mer binding enrichment) (E-score (-0.5 to 0.5)); higher = stronger / more preferred TF binding; most listed sequences are background and not binding sites
Conditions: protein concentration: 100 nM; construct: GST-full length
How it was run: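 PURExpress in vitro transcription/translation supplied GST-tagged yeast transcription factors, either full-length or DNA-binding domain. Applied at about 100-200 nM to universal all-10-mer Agilent arrays double-stranded by primer extension, the bound protein was detected with fluorescent anti-GST. E-scores, modified Wilcoxon-Mann-Whitney statistics, were given by the Universal PBM Analysis Suite to ungapped eight-base words pooled with their reverse complements after masliner normalisation.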

| Sequence | PBM E-score |
| --- | --- |
| CTGCCTCA | -0.0321 |
| GATGCCCC | 0.248 |
| AAGTGGCA | 0.238 |
| AGCCCCGC | 0.00154 |
| CTCTCGTA | -0.0764 |
| ACCACGTC | -0.253 |
| AGCAGTAC | -0.0971 |
| CTGACCAA | 0.0387 |
| AGCAACCT | 0.316 |
| GGGGAACC | 0.161 |
| TGGTCACA | -0.0023 |
| ACCGTGAT | 0.0747 |
| ACCGGGTG | 0.0199 |
| ACCTGACG | -0.109 |
| GCACCCCC | 0.0067 |
| CCAAATCG | 0.00834 |
| CCTCAGAC | -0.19 |
| GGGGTACA | -0.0231 |
| ACAATACC | 0.00823 |
| AACAGGTG | 0.048 |
| GCAATTCC | -0.0456 |
| ACCACATC | 0.0684 |
| AACTTTGG | 0.154 |
| ATGTTGAG | -0.119 |
| CTCAAACA | -0.0199 |

| Sequence | PBM E-score |
| --- | --- |
| TAGGCCCA | -0.139 |
| ACTGCCCG | -0.203 |
| GTTGACTA | 0.0209 |
| GCCTTGGA | -0.159 |
| AACTCTCT | -0.185 |
| ACATGTAA | 0.087 |
| AAAGTAGG | 0.214 |
| AGAGGCTG | 0.206 |
| ACGTCCCT | -0.188 |
| ACGATAAA | -0.0322 |
| ATATCTGC | -0.0191 |
| ATCTAGCA | 0.1 |
| GGCGCTTA | 0.0941 |
| ATATTAAT | 0.234 |
| CCTTGATA | -0.0119 |
| ATTGCACC | 0.00578 |
| TAAATTAA | 0.0451 |
| AGCGCTTA | -0.14 |
| ATGTGAAC | -0.0321 |
| ACGACAAC | 0.0698 |
| AGAGCCAG | -0.211 |
| AAATCGTC | -0.267 |
| ACCACAGA | 0.0112 |
| ATATGACG | -0.00377 |
| CATCTCGG | -0.00481 |

| Sequence | PBM E-score |
| --- | --- |
| ACTGCTTA | 0.178 |
| CACCATTA | 0.0631 |
| ATGAAAAG | -0.0698 |
| CTCTAGAC | -0.245 |
| ACATACTA | -0.0008 |
| AGCCGCAT | 0.0509 |
| ACCGCGGG | -0.0566 |
| CTAAAGAA | 0.0847 |
| AACGCTTC | 0.148 |
| AACCACCA | 0.135 |
| GCGCTGGA | 0.109 |
| TATTGCCA | 0.00643 |
| ATTCGCTC | -0.0957 |
| CGAAGTCA | 0.0729 |
| GCTAATCA | 0.0571 |
| AAGATGGA | 0.146 |
| GCTGCCCA | 0.188 |
| AGCGTTGG | -0.0326 |
| GAGCACTA | -0.237 |
| ATCGCAAA | 0.0413 |
| AAGAGATA | -0.00992 |
| ATTCGTAC | 0.0494 |
| TACAATCA | 0.0182 |
| AAATGTAG | 0.0745 |
| GATGTTCC | 0.0105 |

| Sequence | PBM E-score |
| --- | --- |
| ACAGCTCC | -0.245 |
| ACGTCAAC | -0.0218 |
| AACGAAGG | -0.298 |
| CTTCAGTC | -0.00112 |
| TCTTCGCA | -0.0271 |
| TACTCCAA | 0.0259 |
| GTCGCAGA | -0.00552 |
| AATCTTGT | 0.0867 |
| ACCCTCCC | 0.114 |
| CCATTTGA | -0.0906 |
| CGTGCTAA | -0.152 |
| GATCGACA | -0.177 |
| TCCAAGGA | 0.0809 |
| AGTCTAGA | 0.0415 |
| ATTGAGTG | 0.0775 |
| GATCAGGC | -0.144 |
| CAGACATA | -0.00288 |
| CCGCGGAG | -0.0631 |
| CCTTCAGC | -0.158 |
| GTCTTCAA | 0.00898 |
| ATACATCA | 0.0931 |
| AAACGGCA | 0.0709 |
| ACTAGCGA | -0.139 |
| AATTCGCA | 0.0903 |
| CTAACACC | -0.192 |

| Sequence | PBM E-score |
| --- | --- |
| CGAGCTCG | -0.235 |
| GGCGTAGA | 5e-05 |
| GGATCCAC | 0.302 |
| GATGCCGC | 0.267 |
| CAGAGGTA | 0.0281 |
| GGGCTCAA | -0.0416 |
| ATACTCGC | 0.0551 |
| CTAGAATA | 0.14 |
| GACACTAC | -0.0247 |
| CGCGTAGC | -0.0646 |
| CCCTACGG | 0.0744 |
| GATCACGA | -0.136 |
| AATTCCAC | 0.191 |
| AATGATAA | 0.147 |
| ACACTCCT | -0.0983 |
| GGCCAACC | -0.0896 |
| TATACGAA | 0.259 |
| ATTTAGTA | 0.228 |
| GGATTAAA | 0.137 |
| GCGGTTGA | -0.163 |
| GGCCAGAC | -0.097 |
| GCGATACC | -0.117 |
| AGAACTGA | 0.0569 |
| CCTTAGCA | 0.131 |
| ATCGACGC | -0.15 |

| Sequence | PBM E-score |
| --- | --- |
| TCTGGCCA | -0.183 |
| ATGGGGCG | 0.171 |
| ACCGTAAA | -0.0552 |
| ACTGGCAA | -0.0657 |
| AAATGTGG | 0.186 |
| GCGCAAAA | -0.039 |
| AAACGTAT | 0.0461 |
| ACTTGCAC | -0.126 |
| AGACCACC | -0.0878 |
| AGGCGGCC | 0.169 |
| AGGTCGAC | -0.148 |
| GAGCGCGC | 0.0105 |
| GGACCCCC | -0.0112 |
| AGGGAGTA | -0.0396 |
| CACGTTGC | 0.0658 |
| AAGTTCAT | 0.101 |
| CCTTCAAG | -0.041 |
| AGCACGAT | -0.106 |
| AAGGGTAG | -0.138 |
| GCTAGTTA | -0.176 |
| CATCCAAG | -0.0862 |
| ATGTATGG | 0.0984 |
| CCCCTGAA | 0.0139 |
| ATCTATTA | 0.0929 |
| AGACCCCC | -0.079 |

| Sequence | PBM E-score |
| --- | --- |
| ACGCACTA | -0.207 |
| CTTTGCCC | -0.259 |
| AGCGCGGA | -0.126 |
| ATACGGGC | 0.152 |
| CAGTCTGG | -0.0985 |
| TGAACAAA | 0.0314 |
| ATTCTATG | 0.132 |
| AGGATATG | -0.229 |
| ATACCGAA | 0.146 |
| ACGAGCCC | -0.207 |
| GCAGAATA | 0.0609 |
| CAACTCAC | -0.078 |
| AGATTCCA | 0.426 |
| AAGACACG | 0.117 |
| AGTCCGTC | -0.179 |
| AGTACTAA | 0.0733 |
| AAGTTCCT | 0.163 |
| CAGGTTGG | -0.0265 |
| ACAATGCA | -0.0197 |
| CCGCACGG | -0.00276 |
| CCGCCTTA | 0.00216 |
| CGAAAGCC | -0.141 |
